{"source": "the antibiotic and cytotoxicity screens of Wong et al. (2023)", "note": "The other results are listed elsewhere or left out."}
{"system": "HepG2", "assay": "cytotoxicity call (relative viability < 0.9)", "conditions": "10 µM"}
{"smiles": "CCc1nc2ccc(C(=O)Nc3cccc(OC)c3)cn2c1N(CC)Cc1cccc(Br)c1", "cytotoxicity call": "inactive"}
{"smiles": "Clc1ccc2ncccc2c1", "cytotoxicity call": "inactive"}
{"smiles": "CO/N=C(\\C(=O)N[C@@H]1C(=O)N2C(C(=O)O)=C(CSC(=O)c3ccco3)CS[C@H]12)c1csc(N)n1", "cytotoxicity call": "inactive"}
{"smiles": "C[C@@H]1CN([C@H](C)CO)C(=O)c2cc(NS(=O)(=O)c3ccc(Cl)cc3)ccc2O[C@@H](C)CCCCO[C@@H]1CN(C)C(=O)Cc1ccccc1", "cytotoxicity call": "active"}
{"smiles": "C[C@@H]1CN([C@H](C)CO)C(=O)c2cc(-c3cncnc3)cnc2O[C@H]1CN(C)C(=O)CN1CCOCC1", "cytotoxicity call": "inactive"}
{"smiles": "O=C1O[C@@H](c2ccccc2)[C@@H](c2ccccc2)N2[C@@H](c3ccc(OCCO)cc3)[C@]3(C(=O)Nc4ccccc43)[C@@H](C(=O)N3CCCCCCC3)[C@H]12", "cytotoxicity call": "inactive"}
